# According to PubChem BioAssay AID485344 (National Center for Advancing Translational Sciences (NCATS), 2010):
# About 6,900 (2%) of roughly 340,000 compounds were called active. Cut-off read from the data, not from the text of the source: active = inhibition above about 30%; inactive = below that, where a call was filed. This is a selection; strong and weak results do not stand in their true shares. The source gives no active or inactive call for entries shown without one.
# Biological target: D(2) dopamine receptor (Homo sapiens) (UniProt P14416)
# Test: HTS Assay for Allosteric Antagonists of the Human D2 Dopamine Receptor: Primary Screen for Antagonists; note: 0% is about no effect
# Conditions: HEK293 TREx D2 cells, calcium flux, dopamine EC80; at 10 µM; stronger effect = higher value
# Method in brief: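 Tetracycline-induced HEK293 T-REx cells expressing D2 force-coupled to calcium signalling were dye-loaded, exposed to compound for 180 s, then challenged with an EC80 of dopamine; calcium flux was followed kinetically for a further 180 s.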
# UniProt P14416, sequence (P14416 whole entry, looked up): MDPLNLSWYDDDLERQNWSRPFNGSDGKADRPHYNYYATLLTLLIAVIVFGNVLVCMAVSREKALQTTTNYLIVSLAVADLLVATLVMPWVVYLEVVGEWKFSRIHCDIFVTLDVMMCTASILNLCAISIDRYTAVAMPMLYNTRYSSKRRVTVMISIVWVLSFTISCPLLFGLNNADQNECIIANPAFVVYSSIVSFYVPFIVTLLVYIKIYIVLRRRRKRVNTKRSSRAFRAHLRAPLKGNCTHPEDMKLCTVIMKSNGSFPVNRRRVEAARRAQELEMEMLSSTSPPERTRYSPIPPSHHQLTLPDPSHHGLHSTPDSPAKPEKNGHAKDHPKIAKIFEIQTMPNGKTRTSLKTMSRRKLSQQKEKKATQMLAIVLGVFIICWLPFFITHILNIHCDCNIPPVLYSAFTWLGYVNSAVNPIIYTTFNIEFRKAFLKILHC
row,Compound,inhibition
1,O=C(NCCN1CCCCC1)c1ccc(Cn2c(SCc3cccc(F)c3)nc3cccnc32)cc1,-26.4%
2,COC(=O)c1ccc(CSc2nc3c(c(=O)[nH]2)CCC3)cc1,6.6%
3,OC(COCC1COc2ccccc2O1)CN1CCN(c2ccccc2)CC1 (stereo not drawn),active: 59.9%
4,Cc1cccc(OCC(=O)N(Cc2ccccc2)c2ccccn2)c1,-8.28%
5,COc1ccc(CCNC(=O)c2ccc3c(Cl)c4c(nc3c2)CCCC4)c(OC)c1,3.72%
6,COC(=O)c1cnc(N2CCN(c3ccc(F)cc3)CC2)c2ccccc12,4.27%
7,Cc1ccc(SCC(=O)NC(C)(C)C)cc1,active: 36.8%
8,COc1ccc(C2C(=O)N(C3CCCCCC3)CC(=O)N2CCC2=CCCCC2)cc1 (stereo not drawn),1.51%
9,CS(=O)(=O)N1CCCc2cc(C(=O)Nc3cccc(C(F)(F)F)c3)ccc21,-5.39%
10,COc1cccc(CNC(=O)C(=O)Nc2ccc3nc4n(c(=O)c3c2)CCCCC4)c1,10.4%
11,Cc1ccc(-c2cc(C(=O)Oc3ccccc3Cl)no2)cc1C,-1.22%
12,Cc1ccc(N2CCN(C(=O)c3cc(S(=O)(=O)N4CCCCC4)c[nH]3)CC2)c(C)c1,-3.76%
13,Cc1ccc2nc(Cl)c3cc(C(=O)NC4CCC(C)CC4)sc3c2c1 (stereo not drawn),5.97%
14,CCc1ccc(OCC(=O)Nc2ccc(-c3nc4ncccc4o3)cc2)cc1,-0.276%
15,Cc1ccc2c(c1C)NC(=O)CC2c1ccc(Cl)cc1Cl (stereo not drawn),-5.27%
16,Cc1ccc(OCC(=O)Nc2cccc(C(=O)OCc3cc(=O)n4nc(C)sc4n3)c2)cc1,-4.26%
17,CCC(O)c1cc2c(cc1NC(=O)c1ccccc1F)OCCO2 (stereo not drawn),11.1%
18,O=C(CC1N=C2c3ccccc3N=C(SCc3cccc(F)c3)N2C1=O)NCc1ccc2c(c1)OCO2 (stereo not drawn),-3.58%
19,OCCOCCN1CCN(C(c2ccccc2)c2ccc(Cl)cc2)CC1 (stereo not drawn),active: 72%
20,O=C(O)c1ccc(NC(=O)c2cn(-c3ccccc3)nc2-c2ccc(Br)cc2)cc1,4.05%
21,COc1ccc(-c2noc(COc3ccc(Br)cc3C)n2)cc1OC,15%

row,Compound,inhibition
1,c1ccc(-c2nnc(CN3CCN(c4ccccc4)CC3)o2)cc1,-8.94%
2,CCc1cccc(C)c1NC(=O)Cn1ccn(Cc2ccc(Cl)cc2)c(=O)c1=O,19%
3,COc1ccc(NC(=O)CN(C)S(=O)(=O)c2cnc[nH]2)cc1Cl,-13.8%
4,Cc1ccc(-c2[nH]c(-c3ccccc3)nc2SCC(=O)NCC2CCCO2)cc1 (stereo not drawn),23.8%
5,COc1ccc(OC)c(CCNC(=O)C2=C(C)C(=O)OC23CCC(C)CC3)c1 (stereo not drawn),-8.26%
6,O=C(Cn1nc(C(F)(F)F)c2c1CCC2)Nc1ccc(Cl)cc1,8.8%
7,CCN(CC)c1ccc2cc(-c3nc4ccccc4[nH]3)c(=O)oc2c1,active: 76.3%
8,Cc1cc(C)c2c(CC(=O)Nc3ccc(S(=O)(=O)Nc4ncccn4)cc3)coc2c1,-1.04%
9,O=c1[nH]cnc2c1ncn2[C@@H]1C[C@@H](O)[C@H](CO)O1,active: 38.4%
10,CCN(Cc1ccccc1)C(=O)CN1C(=O)COc2ccc(S(=O)(=O)N(CC)CC)cc21,-3.51%
11,COc1ccccc1Nc1nc(-c2ccccc2Cl)c2cc(Br)ccc2n1,-10.3%
12,Cc1ccc(C)c(N2CCN(C(=O)CCn3c(=O)c4cccn4c4cccnc43)CC2)c1,-2.52%
13,COc1ccccc1NC(=O)CCS(=O)(=O)c1cc2c3c(c1)CCN3C(=O)CC2,3.54%
14,O=C(c1cccs1)N1CCN(CCc2ccccc2)CC1,active: 42.5%
15,O=C(NCc1ccccc1Cl)c1cc(=O)[nH]c2ccc(S(=O)(=O)N3CCCCC3)cc12,19.7%
16,CCC1CCCCN1C(=O)c1nn(-c2ccc(OC)cc2)c(=O)c2c1c1ccccc1n2C (stereo not drawn),3.92%
17,COC(=O)c1cc(NC(=O)c2sc3ncn(Cc4cccc(F)c4)c(=O)c3c2C)cc(C(=O)OC)c1,-14.1%
18,CCOc1ccc(C(=O)NCCn2cc(SCC(=O)Nc3ccccc3)c3ccccc32)cc1,-9.37%
19,Cc1ccc(-n2c(SCC(=O)NCc3ccccc3)nc3c([nH]c4ccccc43)c2=O)cc1,3.09%
20,COc1cc(CN(C(=O)c2cccc(C)c2)c2ccccn2)cc(OC)c1OC,-12.7%
21,CC(C)c1ccc2c(c1)-c1ccccc1S(=O)(=O)N2CC(=O)N1CCCCC1,-23.6%

row,Compound,inhibition
1,COc1cc(Cn2c(=O)sc3ccccc32)ccc1OCCC(C)C,-5.38%
2,CCCSc1nc(=S)n(Cc2ccccc2)c(C)c1C(C)=O,active: 43.1%
3,O=C(CSc1ncc(-c2ccccc2)[nH]1)Nc1cccc(C(F)(F)F)c1,20.3%
4,Cc1cc(Cl)ccc1OCC(=O)Nc1c(C(=O)c2ccccc2)oc2ccccc12,12.6%
5,Cn1c(=O)cc(SCC(=O)N2CCN(c3ccccc3F)CC2)c2cc(Cl)ccc21,0.351%
6,COc1ccc(CNC(=O)CSc2n[nH]c(-c3ccc(OC)cc3)n2)cc1,18.9%
7,Cc1ccc(NC(=O)c2cc3c([nH]c2=O)CC(C)(C)CC3=O)c(C)c1,-0.754%
8,COc1ccc(-c2cc(C(C)=O)c(C)n2CCC(=O)Nc2ccc(C(F)(F)F)cc2)cc1,-0.457%
9,CCOc1cc(CN2CCN(c3ncccn3)CC2)ccc1OC,active: 77.3%
10,Nc1nonc1C(=O)NCCNCc1ccc(Cl)c(Cl)c1,-21.3%
11,CCn1ccc2c(OCC(=O)NCc3ccc(C)cc3)cccc2c1=O,20.3%
12,COc1ccccc1NC(=O)Cn1c(=O)n(Cc2ccccc2)c(=O)c2c3c(sc21)CN(C(C)=O)CC3,-6.73%
13,Cc1cc(C)nc(-n2nc(C)c3c2NC(=O)CC3c2cc(F)ccc2F)n1 (stereo not drawn),5.15%
14,CCn1nc(C)c(CCN(C)C(=O)Nc2cc(C)cc(C)c2)c1C,-3.97%
15,O=C(Nc1cnc(N2CCC(N3CCCCC3)CC2)c(C(=O)O)c1)c1ccc(Br)cc1,-2.99%
16,Cc1ccc(CSc2nc3ccc(NC(=O)COc4ccc(F)cc4)cc3s2)cc1,9.69%
17,O=C(NCCc1cccc(F)c1)C1CCC(=O)N(C2CCCCCC2)C1 (stereo not drawn),active: 33.6%
18,COc1ccc(-n2c(=O)c3c(c4cc(OC)ccc4n3C)n(Cc3ccc(F)cc3Cl)c2=O)cc1,-5.97%
19,O=C(Nc1ccc(C(=O)NCCCN2CCN(c3ccc(F)cc3)CC2)cc1)C1=CSCCO1,active: 69.3%
20,COc1ccccc1NC(=O)c1c(NC(=O)Cc2ccccc2)sc2c1CCC(C(C)(C)C)C2 (stereo not drawn),-28.2%
21,CCc1ccc(CNC(=O)Cn2c(-c3cccs3)cc3cc(F)ccc32)cc1,-15.5%
